Source: paper PMC9638944, “ATM-mediated ELL phosphorylation enhances its self-association through increased EAF1 interaction and inhibits global transcription during genotoxic stress” (Nucleic Acids Research, 2022)
Read-outs that look alike come from different tables or passages of the source. No constants are given. Whether binding was seen depends on the method and setting. Binding seen in cells or lysates may run through a third protein. Some results given as binding are weak or reduced against the parent protein; the word gives no strength. For some assays here: Where a sequence is shown, tags or fusion partners need not be part of it.

Protein sequences, listed by entry. Tags and fused reporters are not part of them. Lines headed by an entry give the natural chain unless they say otherwise; changes in a name come on top.
UniProt P42568: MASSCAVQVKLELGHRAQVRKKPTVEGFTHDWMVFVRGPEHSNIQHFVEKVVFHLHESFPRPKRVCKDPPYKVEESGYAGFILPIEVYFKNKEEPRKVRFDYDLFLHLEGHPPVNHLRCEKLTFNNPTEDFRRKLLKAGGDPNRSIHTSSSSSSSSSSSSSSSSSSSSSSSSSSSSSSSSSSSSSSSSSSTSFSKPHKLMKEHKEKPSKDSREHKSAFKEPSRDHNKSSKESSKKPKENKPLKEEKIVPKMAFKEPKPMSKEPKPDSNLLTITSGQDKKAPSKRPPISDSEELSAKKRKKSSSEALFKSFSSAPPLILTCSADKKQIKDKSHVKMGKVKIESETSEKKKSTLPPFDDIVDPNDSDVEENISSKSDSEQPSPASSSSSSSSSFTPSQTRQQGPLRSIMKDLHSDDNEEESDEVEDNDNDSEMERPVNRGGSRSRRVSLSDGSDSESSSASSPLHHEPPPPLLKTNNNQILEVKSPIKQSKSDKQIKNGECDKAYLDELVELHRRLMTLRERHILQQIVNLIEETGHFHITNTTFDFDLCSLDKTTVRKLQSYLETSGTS
UniProt Q96CJ1: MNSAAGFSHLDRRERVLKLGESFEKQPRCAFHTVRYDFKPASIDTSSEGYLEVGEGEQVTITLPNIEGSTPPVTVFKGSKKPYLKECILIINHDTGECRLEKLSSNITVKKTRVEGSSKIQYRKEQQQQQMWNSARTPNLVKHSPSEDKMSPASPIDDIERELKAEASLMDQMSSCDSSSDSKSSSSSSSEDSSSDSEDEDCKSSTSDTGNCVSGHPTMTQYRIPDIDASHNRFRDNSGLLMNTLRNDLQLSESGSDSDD

Experiments:
FLAG-ELL (Sf9) (human) = target: T1, FLAG-ELL (Sf9) (human) (UniProt P55199); assay: co-IP; Sf9 cells co-infected with baculoviruses, lysis buffer with 300 mM KCl and 0.1% NP-40; first round of precipitation by the tagged ELL (FLAG-ELL or His-ELL), 12 h, 4°C; immunoblot
T1 sequence: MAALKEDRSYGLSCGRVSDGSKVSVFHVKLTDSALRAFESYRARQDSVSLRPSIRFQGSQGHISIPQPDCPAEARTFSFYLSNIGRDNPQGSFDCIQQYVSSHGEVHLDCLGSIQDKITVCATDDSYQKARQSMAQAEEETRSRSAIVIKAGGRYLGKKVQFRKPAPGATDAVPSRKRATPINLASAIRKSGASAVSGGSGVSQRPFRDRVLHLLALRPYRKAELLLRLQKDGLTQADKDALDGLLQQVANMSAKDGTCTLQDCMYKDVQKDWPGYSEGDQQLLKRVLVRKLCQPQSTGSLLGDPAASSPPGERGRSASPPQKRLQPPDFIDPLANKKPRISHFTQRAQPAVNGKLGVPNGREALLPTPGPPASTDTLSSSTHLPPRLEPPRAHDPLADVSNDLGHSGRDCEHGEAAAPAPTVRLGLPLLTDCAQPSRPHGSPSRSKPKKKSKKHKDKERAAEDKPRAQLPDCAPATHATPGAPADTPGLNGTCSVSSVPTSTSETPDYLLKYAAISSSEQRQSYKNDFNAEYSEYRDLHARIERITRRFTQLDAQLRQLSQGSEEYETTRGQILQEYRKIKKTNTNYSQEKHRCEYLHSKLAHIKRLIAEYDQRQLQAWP

[1] = target: ELL•AF9•SEC (Sf9) (human) (UniProt P55199+P42568); assay: co-IP; Sf9 cells co-infected with baculoviruses; second round of precipitation (His-CDK9, AF9 or FLAG-EAF1) from the eluate of the first round; bound material and supernatant immunoblotted
[2] = target: ELL•CDK9•SEC (Sf9) (human) (UniProt P55199+P50750); assay: as above
His-ELL (Sf9) (human) = target: T2, His-ELL (Sf9) (human) (UniProt P55199); assay: co-IP; Sf9 cells co-infected with baculoviruses, lysis buffer with 300 mM KCl and 0.1% NP-40; first round of precipitation by the tagged ELL (FLAG-ELL or His-ELL), 12 h, 4°C; immunoblot
T2 sequence: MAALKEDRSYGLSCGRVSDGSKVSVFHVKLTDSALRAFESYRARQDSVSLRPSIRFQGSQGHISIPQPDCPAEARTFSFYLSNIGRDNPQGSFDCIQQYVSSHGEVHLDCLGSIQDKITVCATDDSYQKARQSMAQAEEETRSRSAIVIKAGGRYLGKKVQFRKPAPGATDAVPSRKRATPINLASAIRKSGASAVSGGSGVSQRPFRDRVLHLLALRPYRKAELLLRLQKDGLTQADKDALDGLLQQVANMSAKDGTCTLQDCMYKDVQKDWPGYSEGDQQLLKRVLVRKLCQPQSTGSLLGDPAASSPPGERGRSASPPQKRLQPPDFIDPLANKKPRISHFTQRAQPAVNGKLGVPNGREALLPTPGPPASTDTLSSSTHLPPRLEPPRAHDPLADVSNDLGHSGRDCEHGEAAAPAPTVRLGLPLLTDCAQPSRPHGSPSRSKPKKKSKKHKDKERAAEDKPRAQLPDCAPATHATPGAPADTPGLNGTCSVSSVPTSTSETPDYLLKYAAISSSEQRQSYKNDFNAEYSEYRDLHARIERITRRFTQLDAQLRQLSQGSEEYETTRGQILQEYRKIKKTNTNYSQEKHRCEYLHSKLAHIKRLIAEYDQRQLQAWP

[3] = target: ELL•EAF1 complex (Sf9) (human) (UniProt P55199+Q96JC9); assay: co-IP; Sf9 cells co-infected with baculoviruses; second round of precipitation (His-CDK9, AF9 or FLAG-EAF1) from the eluate of the first round; bound material and supernatant immunoblotted
[4] = target: T3, endogenous ELL (human (endogenous in 293T)) (UniProt P55199); assay: co-sedimentation; nuclear extract of 293T cells on a 4–20% glycerol gradient, 40K RPM, 8 h, 4°C; fractions immunoblotted
T3 sequence: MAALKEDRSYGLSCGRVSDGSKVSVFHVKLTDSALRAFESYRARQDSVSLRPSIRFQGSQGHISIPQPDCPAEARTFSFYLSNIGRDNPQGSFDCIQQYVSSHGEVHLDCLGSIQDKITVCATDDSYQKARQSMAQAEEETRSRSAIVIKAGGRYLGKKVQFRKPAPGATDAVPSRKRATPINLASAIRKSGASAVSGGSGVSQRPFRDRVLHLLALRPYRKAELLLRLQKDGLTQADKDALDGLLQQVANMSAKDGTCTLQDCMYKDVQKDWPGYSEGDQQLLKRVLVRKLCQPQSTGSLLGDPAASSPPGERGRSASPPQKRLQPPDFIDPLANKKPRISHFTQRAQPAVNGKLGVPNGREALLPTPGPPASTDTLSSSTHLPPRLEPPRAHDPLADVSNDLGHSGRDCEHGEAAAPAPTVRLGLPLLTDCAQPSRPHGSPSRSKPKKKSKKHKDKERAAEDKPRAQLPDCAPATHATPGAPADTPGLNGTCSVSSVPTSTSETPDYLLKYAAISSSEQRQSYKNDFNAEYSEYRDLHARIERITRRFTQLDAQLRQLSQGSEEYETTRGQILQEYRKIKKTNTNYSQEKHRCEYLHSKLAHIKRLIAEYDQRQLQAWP

[5] = target: T3, endogenous ELL (human (endogenous in 293T)); assay: co-IP; endogenous proteins from 293T whole cell lysate in BC150 buffer with 0.1% NP-40; target-specific antibody on protein-G magnetic beads, 12 h, 4°C; species-specific IgG as control; some panels after doxorubicin
[6] = target: T4, FLAG-ELL (45–621) (human) (UniProt P55199); assay: co-IP; 293T cells transiently expressing epitope-tagged proteins, harvested 48 h after transfection; lysis buffer 20 mM Tris-Cl pH 8, 20% glycerol, 2 mM EDTA, 150 mM KCl, 0.1% NP-40; anti-FLAG M2 or anti-HA agarose, 12 h, 4°C; immunoblot. Also the first round of the tandem purifications from 293T. Some panels with doxorubicin, IR, ATM inhibitor, EAF1 or EAF2 knock-down or over-expression
T4 sequence: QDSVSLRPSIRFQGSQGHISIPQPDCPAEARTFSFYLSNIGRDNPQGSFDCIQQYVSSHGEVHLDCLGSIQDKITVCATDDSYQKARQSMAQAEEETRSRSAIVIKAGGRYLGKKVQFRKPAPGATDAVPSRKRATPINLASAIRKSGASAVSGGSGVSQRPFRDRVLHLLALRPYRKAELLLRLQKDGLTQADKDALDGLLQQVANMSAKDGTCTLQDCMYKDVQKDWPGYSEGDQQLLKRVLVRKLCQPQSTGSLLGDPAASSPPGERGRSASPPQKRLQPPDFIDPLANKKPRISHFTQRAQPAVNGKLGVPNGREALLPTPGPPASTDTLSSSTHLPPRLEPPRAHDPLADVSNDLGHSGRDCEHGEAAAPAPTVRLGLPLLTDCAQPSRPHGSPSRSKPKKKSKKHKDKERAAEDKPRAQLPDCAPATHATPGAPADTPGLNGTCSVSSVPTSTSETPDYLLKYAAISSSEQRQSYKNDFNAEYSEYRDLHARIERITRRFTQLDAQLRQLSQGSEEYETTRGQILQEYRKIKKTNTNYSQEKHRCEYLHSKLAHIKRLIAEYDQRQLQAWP

FLAG-ELL (human) [7] = target: T5, FLAG-ELL (human) (UniProt P55199); assay: as above
T5 sequence: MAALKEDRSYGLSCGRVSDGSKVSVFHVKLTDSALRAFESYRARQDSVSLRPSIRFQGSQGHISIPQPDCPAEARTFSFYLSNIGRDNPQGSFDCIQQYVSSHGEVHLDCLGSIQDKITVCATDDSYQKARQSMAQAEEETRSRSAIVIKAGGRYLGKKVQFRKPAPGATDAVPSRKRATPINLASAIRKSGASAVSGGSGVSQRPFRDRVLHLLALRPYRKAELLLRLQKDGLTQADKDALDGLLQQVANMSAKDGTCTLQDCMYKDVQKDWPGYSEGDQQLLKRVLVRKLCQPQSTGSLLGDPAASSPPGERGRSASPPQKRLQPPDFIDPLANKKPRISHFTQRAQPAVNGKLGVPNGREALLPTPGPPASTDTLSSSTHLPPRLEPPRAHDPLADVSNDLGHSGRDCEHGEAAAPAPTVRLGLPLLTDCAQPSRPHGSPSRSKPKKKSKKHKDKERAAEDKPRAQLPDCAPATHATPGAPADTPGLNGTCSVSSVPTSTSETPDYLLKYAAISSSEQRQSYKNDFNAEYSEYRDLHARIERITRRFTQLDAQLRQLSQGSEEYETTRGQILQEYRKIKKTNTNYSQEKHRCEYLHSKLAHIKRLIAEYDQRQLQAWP

[8] = target: ELL•CDK9•SEC (293T) (human) (UniProt P55199+P50750); assay: co-IP; tandem affinity purification from 293T cells: second round (His-CDK9, or the second tagged ELL) from the eluate of the first round; immunoblot
FLAG-ELL TM (human) [9] = target: T6, FLAG-ELL TM (human) (UniProt P55199); assay: co-IP; 293T cells transiently expressing epitope-tagged proteins, harvested 48 h after transfection; lysis buffer 20 mM Tris-Cl pH 8, 20% glycerol, 2 mM EDTA, 150 mM KCl, 0.1% NP-40; anti-FLAG M2 or anti-HA agarose, 12 h, 4°C; immunoblot. Also the first round of the tandem purifications from 293T. Some panels with doxorubicin, IR, ATM inhibitor, EAF1 or EAF2 knock-down or over-expression
T6 sequence: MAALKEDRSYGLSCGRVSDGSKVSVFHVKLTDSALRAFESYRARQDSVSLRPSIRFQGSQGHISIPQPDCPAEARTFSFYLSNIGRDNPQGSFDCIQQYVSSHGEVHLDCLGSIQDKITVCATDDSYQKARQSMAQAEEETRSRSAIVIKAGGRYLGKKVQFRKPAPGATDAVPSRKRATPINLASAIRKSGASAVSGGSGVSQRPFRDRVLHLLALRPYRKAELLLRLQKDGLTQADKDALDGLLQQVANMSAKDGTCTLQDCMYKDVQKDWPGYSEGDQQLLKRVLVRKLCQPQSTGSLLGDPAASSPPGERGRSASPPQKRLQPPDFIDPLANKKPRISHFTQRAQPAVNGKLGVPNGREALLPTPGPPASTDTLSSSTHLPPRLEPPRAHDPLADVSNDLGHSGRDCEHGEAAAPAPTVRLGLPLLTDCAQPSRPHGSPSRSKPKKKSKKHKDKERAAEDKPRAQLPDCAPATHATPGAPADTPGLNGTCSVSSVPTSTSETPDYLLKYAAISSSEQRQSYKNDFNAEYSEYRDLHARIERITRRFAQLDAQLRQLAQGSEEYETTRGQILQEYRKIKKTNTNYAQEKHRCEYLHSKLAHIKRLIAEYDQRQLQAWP

[10] = target: T7, FLAG-ELL lacking the C-terminal 501–621 (human) (UniProt P55199); assay: as above
T7 sequence: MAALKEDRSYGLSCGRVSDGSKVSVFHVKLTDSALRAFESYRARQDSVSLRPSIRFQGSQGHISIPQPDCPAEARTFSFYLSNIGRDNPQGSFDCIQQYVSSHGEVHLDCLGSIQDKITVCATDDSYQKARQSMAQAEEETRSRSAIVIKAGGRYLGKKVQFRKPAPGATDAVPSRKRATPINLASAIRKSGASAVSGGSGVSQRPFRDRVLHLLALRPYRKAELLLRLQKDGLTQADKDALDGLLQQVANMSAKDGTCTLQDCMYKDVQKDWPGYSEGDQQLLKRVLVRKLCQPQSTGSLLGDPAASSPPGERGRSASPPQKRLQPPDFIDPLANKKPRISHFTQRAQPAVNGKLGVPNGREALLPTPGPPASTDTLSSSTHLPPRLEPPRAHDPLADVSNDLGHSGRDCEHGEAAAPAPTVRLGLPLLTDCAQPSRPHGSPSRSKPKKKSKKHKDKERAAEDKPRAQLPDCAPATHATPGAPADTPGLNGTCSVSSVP

FLAG-ELL (human) [11] = target: T5, FLAG-ELL (human); assay: as above; remark: listed apart in the source
FLAG-ELL TM (human) [12] = target: T6, FLAG-ELL TM (human); assay: as above; remark: listed apart in the source

EAF1 (Sf9) (from UniProt Q96JC9 1-268)
binding (FLAG-ELL (Sf9) (human)): binds | binding [1]: no binding | binding [2]: no binding

EAF2 (Sf9) (from UniProt Q96CJ1 1-260)
binding (His-ELL (Sf9) (human)): binds | binding [3]: no binding

endogenous CDK9 (from UniProt P50750 1-372)
binding [4]: binds | binding [5]: binds | binding [6]: binds | binding (FLAG-ELL (human) [7]): binds

endogenous EAF1 (from UniProt Q96JC9 1-268)
binding [4]: binds | binding [8]: no binding | binding [5]: binds | binding (FLAG-ELL (human) [7]): binds | binding (FLAG-ELL TM (human) [9]): binds | binding [10]: no binding

B1: GFP-ELL (protein, UniProt P55199 1-621)
chain: MAALKEDRSYGLSCGRVSDGSKVSVFHVKLTDSALRAFESYRARQDSVSLRPSIRFQGSQGHISIPQPDCPAEARTFSFYLSNIGRDNPQGSFDCIQQYVSSHGEVHLDCLGSIQDKITVCATDDSYQKARQSMAQAEEETRSRSAIVIKAGGRYLGKKVQFRKPAPGATDAVPSRKRATPINLASAIRKSGASAVSGGSGVSQRPFRDRVLHLLALRPYRKAELLLRLQKDGLTQADKDALDGLLQQVANMSAKDGTCTLQDCMYKDVQKDWPGYSEGDQQLLKRVLVRKLCQPQSTGSLLGDPAASSPPGERGRSASPPQKRLQPPDFIDPLANKKPRISHFTQRAQPAVNGKLGVPNGREALLPTPGPPASTDTLSSSTHLPPRLEPPRAHDPLADVSNDLGHSGRDCEHGEAAAPAPTVRLGLPLLTDCAQPSRPHGSPSRSKPKKKSKKHKDKERAAEDKPRAQLPDCAPATHATPGAPADTPGLNGTCSVSSVPTSTSETPDYLLKYAAISSSEQRQSYKNDFNAEYSEYRDLHARIERITRRFTQLDAQLRQLSQGSEEYETTRGQILQEYRKIKKTNTNYSQEKHRCEYLHSKLAHIKRLIAEYDQRQLQAWP
binding (FLAG-ELL (human) [11]): binds | binding (FLAG-ELL TM (human) [12]): binds
